Experimental data published in the supplement of paper PMC3334620.
Whole data set: some 33,000 sequences, median “E-score (-0.5 to 0.5)” near -0.016, cut for the highest 2% near 0.32. The list shows a part of the results.

Target: T1, Stp1 (UniProt B3LFK1)
T1 sequence: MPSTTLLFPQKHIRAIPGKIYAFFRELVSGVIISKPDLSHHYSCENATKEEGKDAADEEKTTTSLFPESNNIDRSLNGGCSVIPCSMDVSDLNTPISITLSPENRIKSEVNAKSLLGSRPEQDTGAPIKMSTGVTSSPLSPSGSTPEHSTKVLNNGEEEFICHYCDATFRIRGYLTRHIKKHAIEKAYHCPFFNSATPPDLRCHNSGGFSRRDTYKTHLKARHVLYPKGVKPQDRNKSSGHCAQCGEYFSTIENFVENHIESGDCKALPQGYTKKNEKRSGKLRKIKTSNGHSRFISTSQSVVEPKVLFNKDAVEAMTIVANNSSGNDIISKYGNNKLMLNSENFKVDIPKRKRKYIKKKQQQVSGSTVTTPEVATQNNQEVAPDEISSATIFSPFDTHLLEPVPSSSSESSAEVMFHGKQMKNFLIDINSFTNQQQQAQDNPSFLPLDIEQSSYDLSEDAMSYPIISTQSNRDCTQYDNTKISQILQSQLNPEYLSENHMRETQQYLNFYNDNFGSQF
Test: PBM E-score (8-mer binding enrichment) (E-score (-0.5 to 0.5)); higher = stronger / more preferred TF binding; most listed sequences are background and not binding sites
Conditions: protein concentration: 200 nM; construct: GST-full length
Description: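 Universal 'all 10-mer' protein binding microarrays (Agilent AMADID 015681) probed with GST-tagged S. cerevisiae TFs (full-length or DBD) made by in vitro transcription/translation (PURExpress), about 100-200 nM. Bound TF was detected with fluorescent anti-GST. Each ungapped 8-mer (which stands for itself and its reverse complement) is scored by the PBM enrichment score (E-score), a modified Wilcoxon-Mann-Whitney statistic from -0.5 to +0.5, computed with the Universal PBM Analysis Suite. Scale: above 0.35 generally sequence-specific binding.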

Row | Sequence | PBM E-score
1 | AAAGTGGA | -0.151
2 | AGGACGAG | -0.295
3 | CTAGTTTA | 0.0466
4 | CGCGCTTA | 0.147
5 | CATTTACA | 0.0742
6 | GCATGTTA | 0.206
7 | GAAAGGTC | -0.263
8 | CGTGTTAG | 0.245
9 | ACCCTCTG | -0.245
10 | AAGGCCTA | -0.0711
11 | CTTTGCGA | 0.0799
12 | ACTTGACG | -0.0194
13 | CTAAAGCC | 0.0471
14 | ATAAGTTG | 0.0546
15 | ACGATGCC | 0.258
16 | ATCAACAA | 0.174
17 | CCGGTAAC | -0.197
18 | GCGCAACA | 0.0501
19 | ATACGGTG | 0.141
20 | AACTACCT | -0.0767
21 | ACGACGTA | -0.0203
22 | CCGACACC | -0.189

Row | Sequence | PBM E-score
23 | GGCTGAAC | 0.12
24 | GCGTCTTA | 0.00904
25 | ATGAAATG | 0.00791
26 | GTACGTGA | 0.0167
27 | AGGAAGTG | -0.212
28 | AGATGGGG | -0.17
29 | AACTTAGA | 0.103
30 | AGCCATGC | 0.121
31 | CGTCTGGA | -0.0198
32 | ACGAGCGT | -0.124
33 | ACTGCTAA | -0.0758
34 | ATAGTGCA | 0.0566
35 | AGCTCACA | -0.0162
36 | CACTAGAC | -0.0647
37 | AGCTTTAT | -0.0423
38 | ATTTCCAA | 0.153
39 | AAATAGCA | -0.116
40 | GACATTGA | -0.0419
41 | CCATCCAG | -0.217
42 | CTCGCGGA | -0.0275
43 | GGATCCTA | -0.101
44 | CTAACGAG | -0.057

Row | Sequence | PBM E-score
45 | CCTGAACG | 0.0107
46 | GATGCAGA | -0.0503
47 | AGGCCCCA | -0.18
48 | CCAACCGA | -0.146
49 | ACAAAGGT | -0.00097
50 | ACAAACGT | -0.0516
51 | ACCCCTAA | -0.132
52 | CGAGCGCC | 0.219
53 | CGAGGACC | -0.137
54 | AGCTGAGG | -0.195
55 | CCGGTTCG | -0.324
56 | ACACACAA | 0.182
57 | CGCCCGGA | -0.107
58 | GGTTCCAC | -0.197
59 | CACTGCAA | 0.174
60 | ACGTCGCT | -0.207
61 | CCATAAGG | -0.0531
62 | TAAGGTCA | -0.15
63 | AATCGGCG | 0.28
64 | GTTCAACA | 0.0457
65 | AAACACCA | -0.0168
66 | TGAATCAA | 0.183

Row | Sequence | PBM E-score
67 | ATCATCTC | -0.0585
68 | ACGTAGAA | 0.165
69 | CTAGGTCA | -0.368
70 | ATCGCTGG | -0.172
71 | ACGGCCCA | 0.333
72 | ATTGGGCA | -0.0403
73 | AGTTTCCG | 0.1
74 | CAGTCTAG | -0.269
75 | CCCATCAA | 0.00916
76 | TGCTGCCA | -0.0707
77 | CACCTTCC | -0.0396
78 | ACTGACGC | 0.0121
79 | GAGAACAA | 0.145
80 | ATTCCACA | 0.203
81 | AAAGTCTA | -0.18
82 | GCGAAGGA | 0.0735
83 | AGGACTTG | -0.245
84 | GCCCCAGC | -0.0464
85 | AAGTTCCC | -0.163
86 | GTATAGGA | -0.108
